# Results from the supplement of paper PMC8728848.
# This is one part of the list.
# B1: Gal 3 (Homo sapiens), P17931 (protein)
# chain: MADNFSLHDALSGSGNPNPQGWPGAWGNQPAGAGGYPGASYPGAYPGQAPPGAYPGQAPPGAYHGAPGAYPGAPAPGVYPGPPSGPGAYPSSGQPSAPGAYPATGPYGAPAGPLIVPYNLPLPGGVVPRMLITILGTVKPNANSILDFQRGNDVAFHFNPRFNENNRRVIVCNTKLDNNWGREERQSVFPFESGKPFKIQVLVEPDHFKVAVNDAHLLQYNHRVKKLNEISKLGISGDIDLTSASYTMI
# Legend:
# Assay in all cases: glycan array binding signal (z-score within array); higher = stronger binding
# Details in all cases: glycan notation: IUPAC condensed, linker removed; mutation: R144S
# [1] = molecular target: Man(a1-2)Man(a1-6)[Man(a1-3)]Man(a1-6)[Man(a1-2)Man(a1-2)Man(a1-3)]Man(b1-4)GlcNAc(b1-4)GlcNAc
# Summary of the method: (§1)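 Glycan array binding is given as a within-array Z-score, which can be read as non-binding when negative. The arrays, 3228 of them, came from the Consortium for Functional Glycomics database and were retained only where the protein sequence was available. Z-scores were averaged across arrays of the same protein sequence at different concentrations or buffers and across linkers.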
# Man(a1-3)[Man(a1-6)]Man = molecular target: Man(a1-3)[Man(a1-6)]Man
# Summary of the method: as §1
# [2] = molecular target: Man(a1-3)[Man(a1-6)]Man(a1-6)[Man(a1-2)Man(a1-3)]Man(b1-4)GlcNAc(b1-4)GlcNAc
# Summary of the method: as §1
# [3] = molecular target: Man(a1-3)[Man(a1-6)]Man(a1-6)[Man(a1-3)]Man
# Summary of the method: as §1
# [4] = molecular target: Man(a1-3)[Man(a1-6)]Man(a1-6)[Man(a1-3)]Man(b1-4)GlcNAc(b1-4)GlcNAc
# Summary of the method: as §1
# [5] = molecular target: Man(a1-3)[Man(a1-6)]Man(b1-4)GlcNAc(b1-4)GlcNAc
# Summary of the method: as §1
# Man(a1-6)Man = molecular target: Man(a1-6)Man
# Summary of the method: as §1
# Man(b1-4)GlcNAc = molecular target: Man(b1-4)GlcNAc
# Summary of the method: as §1
# Neu5Ac(a2-3)Gal = molecular target: Neu5Ac(a2-3)Gal
# Summary of the method: as §1
# [6] = molecular target: Neu5Ac(a2-3)Gal(b1-3)GalNAc
# Summary of the method: as §1
# [7] = molecular target: Neu5Ac(a2-3)Gal(b1-3)GalNAc(b1-3)Gal(a1-4)Gal(b1-4)Glc
# Summary of the method: as §1
# [8] = molecular target: Neu5Ac(a2-3)Gal(b1-3)GalNAc(b1-4)[Neu5Ac(a2-3)]Gal(b1-4)Glc
# Summary of the method: as §1
# [9] = molecular target: Neu5Ac(a2-3)Gal(b1-3)GalNAc6S
# Summary of the method: as §1
# [10] = molecular target: Neu5Ac(a2-3)Gal(b1-3)GlcNAc
# Summary of the method: as §1
# [11] = molecular target: Neu5Ac(a2-3)Gal(b1-3)GlcNAc(b1-2)Man(a1-3)[Neu5Ac(a2-3)Gal(b1-3)GlcNAc(b1-2)Man(a1-6)]Man(b1-4)GlcNAc(b1-4)GlcNAc
# Summary of the method: as §1
# [12] = molecular target: Neu5Ac(a2-3)Gal(b1-3)GlcNAc(b1-3)Gal(b1-3)GlcNAc
# Summary of the method: as §1
# [13] = molecular target: Neu5Ac(a2-3)Gal(b1-3)GlcNAc(b1-3)Gal(b1-4)GlcNAc
# Summary of the method: as §1
# [14] = molecular target: Neu5Ac(a2-3)Gal(b1-3)GlcNAc(b1-3)GalNAc
# Summary of the method: as §1
# [15] = molecular target: Neu5Ac(a2-3)Gal(b1-3)GlcNAc6S
# Summary of the method: as §1
# [16] = molecular target: Neu5Ac(a2-3)Gal(b1-3)[Fuc(a1-4)]GlcNAc
# Summary of the method: as §1
# [17] = molecular target: Neu5Ac(a2-3)Gal(b1-3)[Fuc(a1-4)]GlcNAc(b1-3)Gal(b1-3)[Fuc(a1-4)]GlcNAc
# Summary of the method: as §1
# [18] = molecular target: Neu5Ac(a2-3)Gal(b1-3)[Fuc(a1-4)]GlcNAc(b1-3)Gal(b1-4)[Fuc(a1-3)]GlcNAc
# Summary of the method: as §1
# [19] = molecular target: Neu5Ac(a2-3)Gal(b1-3)[Neu5Ac(a2-3)Gal(b1-4)]GlcNAc
# Summary of the method: as §1
# [20] = molecular target: Neu5Ac(a2-3)Gal(b1-3)[Neu5Ac(a2-6)]GalNAc
# Summary of the method: as §1
# Neu5Ac(a2-3)Gal(b1-4)Glc = molecular target: Neu5Ac(a2-3)Gal(b1-4)Glc
# Summary of the method: as §1
# [21] = molecular target: Neu5Ac(a2-3)Gal(b1-4)GlcNAc
# Summary of the method: as §1
# [22] = molecular target: Neu5Ac(a2-3)Gal(b1-4)GlcNAc(b1-2)Man(a1-3)[GlcNAc(b1-2)Man(b1-4)GlcNAc(b1-2)Man(a1-6)]Man(b1-4)GlcNAc(b1-4)GlcNAc
# Summary of the method: as §1
# [23] = molecular target: Neu5Ac(a2-3)Gal(b1-4)GlcNAc(b1-2)Man(a1-3)[Neu5Ac(a2-6)Gal(b1-4)GlcNAc(b1-2)Man(a1-6)]Man(b1-4)GlcNAc(b1-4)GlcNAc
# Summary of the method: as §1
# [24] = molecular target: Neu5Ac(a2-3)Gal(b1-4)GlcNAc(b1-3)Gal(b1-3)GlcNAc
# Summary of the method: as §1
# [25] = molecular target: Neu5Ac(a2-3)Gal(b1-4)GlcNAc(b1-3)Gal(b1-4)GlcNAc
# Summary of the method: as §1
# [26] = molecular target: Neu5Ac(a2-3)Gal(b1-4)GlcNAc(b1-3)Gal(b1-4)GlcNAc(b1-3)Gal(b1-4)GlcNAc
# Summary of the method: as §1
# [27] = molecular target: Neu5Ac(a2-3)Gal(b1-4)GlcNAc(b1-3)Gal(b1-4)[Fuc(a1-3)]GlcNAc
# Summary of the method: as §1
# [28] = molecular target: Neu5Ac(a2-3)Gal(b1-4)GlcNAc(b1-3)GalNAc
# Summary of the method: as §1
# [29] = molecular target: Neu5Ac(a2-3)Gal(b1-4)GlcNAc(b1-6)[Gal(b1-3)]GalNAc
# Summary of the method: as §1
# [30] = molecular target: Neu5Ac(a2-3)Gal(b1-4)GlcNAc(b1-6)[Neu5Ac(a2-3)Gal(b1-3)]GalNAc
# Summary of the method: as §1
# [31] = molecular target: Neu5Ac(a2-3)Gal(b1-4)GlcNAc6S
# Summary of the method: as §1
# [32] = molecular target: Neu5Ac(a2-3)Gal(b1-4)[Fuc(a1-3)]GlcNAc
# Summary of the method: as §1
# [33] = molecular target: Neu5Ac(a2-3)Gal(b1-4)[Fuc(a1-3)]GlcNAc(b1-3)Gal
# Summary of the method: as §1
# [34] = molecular target: Neu5Ac(a2-3)Gal(b1-4)[Fuc(a1-3)]GlcNAc(b1-3)Gal(b1-4)GlcNAc
# Summary of the method: as §1
# [35] = molecular target: Neu5Ac(a2-3)Gal(b1-4)[Fuc(a1-3)]GlcNAc(b1-3)Gal(b1-4)[Fuc(a1-3)]GlcNAc(b1-3)Gal(b1-4)[Fuc(a1-3)]GlcNAc
# Summary of the method: as §1
# [36] = molecular target: Neu5Ac(a2-3)Gal(b1-4)[Fuc(a1-3)]GlcNAc(b1-3)GalNAc
# Summary of the method: as §1
# [37] = molecular target: Neu5Ac(a2-3)Gal(b1-4)[Fuc(a1-3)]GlcNAc(b1-6)[Gal(b1-3)]GalNAc
# Summary of the method: as §1
# [38] = molecular target: Neu5Ac(a2-3)Gal(b1-4)[Fuc(a1-3)]GlcNAc(b1-6)[Neu5Ac(a2-3)Gal(b1-3)]GalNAc
# Summary of the method: as §1
# [39] = molecular target: Neu5Ac(a2-3)Gal(b1-4)[Fuc(a1-3)]GlcNAc6S
# Summary of the method: as §1
# [40] = molecular target: Neu5Ac(a2-3)Gal6S(b1-4)GlcNAc
# Summary of the method: as §1
binder,measurement,setting,value
B1,glycan array binding signal (z-score),[1],-0.355
same,glycan array binding signal (z-score),Man(a1-3)[Man(a1-6)]Man,-0.354
same,glycan array binding signal (z-score),[2],-0.36
same,glycan array binding signal (z-score),[3],-0.354
same,glycan array binding signal (z-score),[4],-0.351
same,glycan array binding signal (z-score),[5],-0.363
same,glycan array binding signal (z-score),Man(a1-6)Man,-0.355
same,glycan array binding signal (z-score),Man(b1-4)GlcNAc,-0.36
same,glycan array binding signal (z-score),Neu5Ac(a2-3)Gal,-0.352
same,glycan array binding signal (z-score),[6],-0.362
same,glycan array binding signal (z-score),[7],-0.359
same,glycan array binding signal (z-score),[8],-0.356
same,glycan array binding signal (z-score),[9],-0.365
same,glycan array binding signal (z-score),[10],-0.358
same,glycan array binding signal (z-score),[11],-0.359
same,glycan array binding signal (z-score),[12],-0.356
same,glycan array binding signal (z-score),[13],-0.365
same,glycan array binding signal (z-score),[14],-0.363
same,glycan array binding signal (z-score),[15],-0.365
same,glycan array binding signal (z-score),[16],-0.351
same,glycan array binding signal (z-score),[17],-0.361
same,glycan array binding signal (z-score),[18],-0.364
same,glycan array binding signal (z-score),[19],-0.314
same,glycan array binding signal (z-score),[20],-0.36
same,glycan array binding signal (z-score),Neu5Ac(a2-3)Gal(b1-4)Glc,-0.355
same,glycan array binding signal (z-score),[21],-0.361
same,glycan array binding signal (z-score),[22],-0.354
same,glycan array binding signal (z-score),[23],-0.357
same,glycan array binding signal (z-score),[24],-0.361
same,glycan array binding signal (z-score),[25],-0.359
same,glycan array binding signal (z-score),[26],0.844
same,glycan array binding signal (z-score),[27],-0.36
same,glycan array binding signal (z-score),[28],-0.36
same,glycan array binding signal (z-score),[29],-0.362
same,glycan array binding signal (z-score),[30],-0.357
same,glycan array binding signal (z-score),[31],-0.365
same,glycan array binding signal (z-score),[32],-0.36
same,glycan array binding signal (z-score),[33],-0.371
same,glycan array binding signal (z-score),[34],-0.353
same,glycan array binding signal (z-score),[35],-0.361
same,glycan array binding signal (z-score),[36],-0.346
same,glycan array binding signal (z-score),[37],-0.351
same,glycan array binding signal (z-score),[38],-0.352
same,glycan array binding signal (z-score),[39],-0.353
same,glycan array binding signal (z-score),[40],-0.354
